This note sets out measurements from the supplement of paper PMC11417369.

± gives the standard deviation of the averaged measurements. This is one part of the list.

This assay has as its system PfAP2-G AP2 domain (GST-tagged). Put plainly: gcPBM binding intensity (ln(normalized median fluorescence intensity)); higher = stronger DNA binding. In short, it runs like this:
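Each value is the highest Masliner-normalised natural-log median intensity across replicate spots of either orientation of a probe. The probes were primer-extended double-stranded 36-bp intergenic genomic sequences on an Agilent 4 × 180k array, alongside negative controls, exposed for 1 h to GST-tagged P. falciparum DNA-binding domains expressed in E. coli. Bound protein was picked up with Alexa488 anti-GST antibody and scanned at 488 nm.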
Turning to “TATATTATATTTTTATGTACATATATGTTTTTTTTT [XGTACX_site8239]”, the “gcPBM binding intensity (ln)” value is 11.3 ± 0.72.

As for “ATTTTATCAAGAGGAAGTACATTACCCCATGAAAAA [XGTACX_site8295]”, the “gcPBM binding intensity (ln)” value is 11.4 ± 0.78.

Turning to “TATATTTTTTAATTCACACAAAAATGAAAAATATTT [CACACA_site6001]”, the “gcPBM binding intensity (ln)” value was 10.1 ± 0.18.

In the case of “ATATCTGAAGTGTAAAGTACATATATATATTCATAT [XGTACX_site4612]”, the “gcPBM binding intensity (ln)” value came to 10.9 ± 0.64.

With “TATATATATATATGATGTACATGAAAATTTCCAAAA [XGTACX_site5472]”, the “gcPBM binding intensity (ln)” value was 11.2 ± 0.77.

Take “CAATTTTACTCATAAACACACATATAGATGTTATTA [CACACA_site7474]”: the “gcPBM binding intensity (ln)” value was found to be 9.95 ± 0.2.

Take “AATAGTAAAAGATATACACACACCAAAAAATATAAT [CACACA_site5293]”: the “gcPBM binding intensity (ln)” value worked out at 10.2 ± 0.12.

Consider “AATAATATTTAATACACACACCAGTTCTGCAAATTT [CACACA_site7712]”, for which the “gcPBM binding intensity (ln)” value stood at 10.3 ± 0.2.

As to “GAAAAAAGAAATTAAACATGCATCTGCAAATTTAAA [TGCATGCA_site974]”, the “gcPBM binding intensity (ln)” value was found to be 9.37 ± 0.35.

In the case of “ACATAATAAAAATAAATTCATAAGTAAATAAATAAA [TGCATGCA_negctrl_site186]”, the “gcPBM binding intensity (ln)” value came out at 9.88 ± 0.24.

In the case of “TGCTACATTTTATGTACACACATATACAGATATATA [CACACA_site4646]”, the “gcPBM binding intensity (ln)” value was found to be 11.4 ± 0.88.

Take “TGAATAAATCAAAGCACACATACACCCACATATATA [CACACA_site286]”: the “gcPBM binding intensity (ln)” value stood at 10.3 ± 0.31.

Consider “CTAAAAAATAGTAAAAGTACATAAATAATTTTGCTT [XGTACX_site8919]”, for which the “gcPBM binding intensity (ln)” value came to 11.3 ± 0.83.

Take “CATAAATTACTTTTTACACACTAAAATAAAATACAA [CACACA_site1135]”: the “gcPBM binding intensity (ln)” value was 10.2 ± 0.25.

“AATACACGCAGACACACACACACACGCACATATATA [CACACA_site6447]”: the “gcPBM binding intensity (ln)” value was 10.3 ± 0.19.

With “ACAATTATTTTGTTCTTTAATGGTAGGTTCTATGTC [CACACA_negctrl_site1419]”, the “gcPBM binding intensity (ln)” value was 10.1 ± 0.14.

Take “AAAAAAAAATATAACAGTACATAAACATATGAATAT [XGTACX_site7093]”: the “gcPBM binding intensity (ln)” value turned out to be 10.6 ± 0.3.

Regarding “TTTTATAATTTCTTCTGTACATATATATGAAAATAT [XGTACX_site74]”, the “gcPBM binding intensity (ln)” value is 11 ± 0.72.

With “TCAACCAAAACATAAGCATGCAATATATTTTTATAC [TGCATGCA_site560]”, the “gcPBM binding intensity (ln)” value was determined as 9.79 ± 0.099.

Take “CACAAAGACACAAACACACACACACCCACATACATA [CACACA_site452]”: the “gcPBM binding intensity (ln)” value was 10.4 ± 0.4.

On to “ATTTCCCTATATAGAGCATGCACTATATTCAAATGA [TGCATGCA_site531]”, for which the “gcPBM binding intensity (ln)” value was found to be 9.915 ± 0.035.

Regarding “AACAAAAACACTTTTACACACATAAGTAAAATATAT [CACACA_site1994]”, the “gcPBM binding intensity (ln)” value turned out to be 10.2 ± 0.26.

As for “TACTTATTTAAAATAGTGCATGAATAGAAGATATAT [GTGCAC_site9756]”, the “gcPBM binding intensity (ln)” value was found to be 10.1 ± 0.23.

Consider “TTATATATTTTTATGTGTACTTATATATATATATAT [XGTACX_site6211]”, for which the “gcPBM binding intensity (ln)” value turned out to be 11.7 ± 1.1.

On to “TAAAGAAACTATTCAACACACGGTCTAATTATTACA [CACACA_site1064]”, for which the “gcPBM binding intensity (ln)” value was determined as 9.99 ± 0.014.

Turning to “ATAAAAAAAATAAAAAGTACAAAAAAAAAAAATGGA [XGTACX_site136]”, the “gcPBM binding intensity (ln)” value is 11.3 ± 0.71.

With “ATACAATTTATTTTAACACACGAATGAATTGATTAT [CACACA_site4160]”, the “gcPBM binding intensity (ln)” value worked out at 9.78 ± 0.26.

For “ATACAAATATACTTTTGTACGAAGAAATATATATAT [XGTACX_site3912]”, the “gcPBM binding intensity (ln)” value was determined as 10.6 ± 0.41.

On to “GGTTCATATCTTAACACACACATACATATTATAGAT [CACACA_site7392]”, for which the “gcPBM binding intensity (ln)” value came out at 10.2 ± 0.13.

“TATAAATATATATTTTGTACTTAATATAAATTTATA [XGTACX_site7996]”: the “gcPBM binding intensity (ln)” value worked out at 11 ± 0.62.

As to “AAAAATAAACGACAGTGTACTAAATATTTAATTTTC [XGTACX_site3580]”, the “gcPBM binding intensity (ln)” value was 11.1 ± 0.65.

Consider “TATTCTAAAGAAATTACACACATGCAATGAAAAAAA [CACACA_site6895]”, for which the “gcPBM binding intensity (ln)” value came to 9.74 ± 0.11.

Regarding “CAGGGCAGGGGGAAGGGTACACATAAAAGAAAATAA [XGTACX_site172]”, the “gcPBM binding intensity (ln)” value came out at 11.7 ± 1.1.

Take “AAAAGGAACAGACACACACACATATATAAATATGTA [CACACA_site7656]”: the “gcPBM binding intensity (ln)” value was determined as 9.94 ± 0.25.

Consider “TTTAATCAATGATTTAATGAAAAAAGCAAAAAAAAA [GTGCAC_negctrl_site213]”, for which the “gcPBM binding intensity (ln)” value turned out to be 9.87 ± 0.18.

For the sequence “CGTTTGGTACACGTAGTGTTTTCGTTTGAATGTACC [GTGCAC_negctrl_site201]”, the “gcPBM binding intensity (ln)” value was 11.4 ± 0.94.

Consider “TTTAATTTTCCCTTCACACATAATATATATCTGTAT [CACACA_site5370]”, for which the “gcPBM binding intensity (ln)” value was determined as 9.78 ± 0.028.

With “GACATATATAGCAATCGTACATATATTATAAAAGGT [XGTACX_site6891]”, the “gcPBM binding intensity (ln)” value was determined as 11 ± 0.47.

Consider “TTTTTTTATATTATACGCACTAATATATATATATAT [XGTACX_negctrl_site40]”, for which the “gcPBM binding intensity (ln)” value came out at 10.4 ± 0.4.

Turning to “TAACACTTTTTTTTTCGTACATATATTATATATATA [XGTACX_site5470]”, the “gcPBM binding intensity (ln)” value is 10.9 ± 0.42.

In the case of “AAATAGACATAAAAAGGTACACAAATTGTGTATTAA [XGTACX_site527]”, the “gcPBM binding intensity (ln)” value is 11.4 ± 0.74.

Take “TTATTAAAATATTAAAGTACAAAAAAAATAAATAAA [XGTACX_site6507]”: the “gcPBM binding intensity (ln)” value is 11.1 ± 0.6.

“TTATGTATATTATAAATTAATACATTTAAATTAATA [CACACA_negctrl_site34]”: the “gcPBM binding intensity (ln)” value amounted to 9.575 ± 0.035.

Regarding “GTATATAATTTATGTGCACACACTCCTATTTTTAGC [CACACA_site49]”, the “gcPBM binding intensity (ln)” value was 10.7 ± 0.42.
